# Source: the supplement of paper PMC8728848
# The list shows a part of the results.
# B1: PA-IL (Pseudomonas aeruginosa), Q05097 (protein)
# chain: MAWKGEVLANNEAGQVTSIIYNPGDVITIVAAGWASYGPTQKWGPQGDREHPDQGLICHDAFCGALVMKIGNSGTIPVNTGLFRWVAPNNVQGAITLIYNDVPGTYGNNSGSFSVNIGKDQS
# How the values were obtained:
# Experiment in all cases: glycan array binding signal (z-score within array); higher = stronger binding
# Settings in all cases: glycan notation: IUPAC condensed, linker removed
# [1] = biological target: Gal(b1-4)GlcNAc(b1-3)Gal(b1-3)GlcNAc
# How it was run: (§1)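 Columns mapping to the same glycan were averaged after glycan names were converted to IUPAC-condensed notation. The data come from 3228 arrays in the Consortium for Functional Glycomics database, limited to those with an available protein sequence. Binding is reported as a within-array Z-score averaged across arrays of one protein sequence and across linkers.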
# [2] = biological target: Gal(b1-4)GlcNAc(b1-3)Gal(b1-4)Glc
# How it was run: as §1
# [3] = biological target: Gal(b1-4)GlcNAc(b1-3)Gal(b1-4)GlcNAc
# How it was run: as §1
# [4] = biological target: Gal(b1-4)GlcNAc(b1-3)Gal(b1-4)GlcNAc(b1-2)Man(a1-3)[Gal(b1-4)GlcNAc(b1-3)Gal(b1-4)GlcNAc(b1-2)Man(a1-6)]Man(b1-4)GlcNAc(b1-4)GlcNAc
# How it was run: as §1
# [5] = biological target: Gal(b1-4)GlcNAc(b1-3)Gal(b1-4)GlcNAc(b1-2)Man(a1-3)[Gal(b1-4)GlcNAc(b1-3)Gal(b1-4)GlcNAc(b1-2)Man(a1-6)]Man(b1-4)GlcNAc(b1-4)[Fuc(a1-6)]GlcNAc
# How it was run: as §1
# [6] = biological target: Gal(b1-4)GlcNAc(b1-3)Gal(b1-4)GlcNAc(b1-2)[Gal(b1-4)GlcNAc(b1-3)Gal(b1-4)GlcNAc(b1-6)]Man(a1-6)[Gal(b1-4)GlcNAc(b1-3)Gal(b1-4)GlcNAc(b1-2)Man(a1-3)]Man(b1-4)GlcNAc(b1-4)GlcNAc
# How it was run: as §1
# [7] = biological target: Gal(b1-4)GlcNAc(b1-3)Gal(b1-4)GlcNAc(b1-2)[Gal(b1-4)GlcNAc(b1-3)Gal(b1-4)GlcNAc(b1-6)]Man(a1-6)[Gal(b1-4)GlcNAc(b1-3)Gal(b1-4)GlcNAc(b1-2)Man(a1-3)]Man(b1-4)GlcNAc(b1-4)[Fuc(a1-6)]GlcNAc
# How it was run: as §1
# [8] = biological target: Gal(b1-4)GlcNAc(b1-3)Gal(b1-4)GlcNAc(b1-3)Gal(b1-4)GlcNAc
# How it was run: as §1
# [9] = biological target: Gal(b1-4)GlcNAc(b1-3)Gal(b1-4)GlcNAc(b1-3)Gal(b1-4)GlcNAc(b1-2)Man(a1-3)[Gal(b1-4)GlcNAc(b1-3)Gal(b1-4)GlcNAc(b1-3)Gal(b1-4)GlcNAc(b1-2)Man(a1-6)]Man(b1-4)GlcNAc(b1-4)GlcNAc
# How it was run: as §1
# [10] = biological target: Gal(b1-4)GlcNAc(b1-3)Gal(b1-4)GlcNAc(b1-3)Gal(b1-4)GlcNAc(b1-2)Man(a1-3)[Gal(b1-4)GlcNAc(b1-3)Gal(b1-4)GlcNAc(b1-3)Gal(b1-4)GlcNAc(b1-2)Man(a1-6)]Man(b1-4)GlcNAc(b1-4)[Fuc(a1-6)]GlcNAc
# How it was run: as §1
# [11] = biological target: Gal(b1-4)GlcNAc(b1-3)Gal(b1-4)GlcNAc(b1-3)Gal(b1-4)GlcNAc(b1-2)[Gal(b1-4)GlcNAc(b1-3)Gal(b1-4)GlcNAc(b1-3)Gal(b1-4)GlcNAc(b1-6)]Man(a1-6)[Gal(b1-4)GlcNAc(b1-3)Gal(b1-4)GlcNAc(b1-3)Gal(b1-4)GlcNAc(b1-2)Man(a1-3)]Man(b1-4)GlcNAc(b1-4)[Fuc(a1-6)]GlcNAc
# How it was run: as §1
# [12] = biological target: Gal(b1-4)GlcNAc(b1-3)Gal(b1-4)GlcNAc(b1-3)Gal(b1-4)GlcNAc(b1-3)Gal(b1-4)GlcNAc(b1-2)Man(a1-3)[Gal(b1-4)GlcNAc(b1-3)Gal(b1-4)GlcNAc(b1-3)Gal(b1-4)GlcNAc(b1-3)Gal(b1-4)GlcNAc(b1-2)Man(a1-6)]Man(b1-4)GlcNAc(b1-4)GlcNAc
# How it was run: as §1
# [13] = biological target: Gal(b1-4)GlcNAc(b1-3)Gal(b1-4)GlcNAc(b1-3)Gal(b1-4)GlcNAc(b1-3)Gal(b1-4)GlcNAc(b1-2)Man(a1-3)[Gal(b1-4)GlcNAc(b1-3)Gal(b1-4)GlcNAc(b1-3)Gal(b1-4)GlcNAc(b1-3)Gal(b1-4)GlcNAc(b1-2)Man(a1-6)]Man(b1-4)GlcNAc(b1-4)[Fuc(a1-6)]GlcNAc
# How it was run: as §1
# [14] = biological target: Gal(b1-4)GlcNAc(b1-3)Gal(b1-4)GlcNAc(b1-3)Gal(b1-4)GlcNAc(b1-3)Gal(b1-4)GlcNAc(b1-2)[Gal(b1-4)GlcNAc(b1-3)Gal(b1-4)GlcNAc(b1-3)Gal(b1-4)GlcNAc(b1-3)Gal(b1-4)GlcNAc(b1-6)]Man(a1-6)[Gal(b1-4)GlcNAc(b1-3)Gal(b1-4)GlcNAc(b1-3)Gal(b1-4)GlcNAc(b1-3)Gal(b1-4)GlcNAc(b1-2)Man(a1-3)]Man(b1-4)GlcNAc(b1-4)[Fuc(a1-6)]GlcNAc
# How it was run: as §1
# [15] = biological target: Gal(b1-4)GlcNAc(b1-3)Gal(b1-4)GlcNAc(b1-3)Gal(b1-4)GlcNAc(b1-3)Gal(b1-4)GlcNAc(b1-3)Gal(b1-4)GlcNAc(b1-2)Man(a1-3)[Gal(b1-4)GlcNAc(b1-3)Gal(b1-4)GlcNAc(b1-3)Gal(b1-4)GlcNAc(b1-3)Gal(b1-4)GlcNAc(b1-3)Gal(b1-4)GlcNAc(b1-2)Man(a1-6)]Man(b1-4)GlcNAc(b1-4)GlcNAc
# How it was run: as §1
# [16] = biological target: Gal(b1-4)GlcNAc(b1-3)Gal(b1-4)GlcNAc(b1-3)Gal(b1-4)GlcNAc(b1-3)Gal(b1-4)GlcNAc(b1-3)Gal(b1-4)GlcNAc(b1-2)Man(a1-3)[Gal(b1-4)GlcNAc(b1-3)Gal(b1-4)GlcNAc(b1-3)Gal(b1-4)GlcNAc(b1-3)Gal(b1-4)GlcNAc(b1-3)Gal(b1-4)GlcNAc(b1-2)Man(a1-6)]Man(b1-4)GlcNAc(b1-4)[Fuc(a1-6)]GlcNAc
# How it was run: as §1
# [17] = biological target: Gal(b1-4)GlcNAc(b1-3)Gal(b1-4)GlcNAc(b1-3)Gal(b1-4)GlcNAc(b1-3)Gal(b1-4)GlcNAc(b1-3)Gal(b1-4)GlcNAc(b1-2)[Gal(b1-4)GlcNAc(b1-3)Gal(b1-4)GlcNAc(b1-3)Gal(b1-4)GlcNAc(b1-3)Gal(b1-4)GlcNAc(b1-3)Gal(b1-4)GlcNAc(b1-6)]Man(a1-6)[Gal(b1-4)GlcNAc(b1-3)Gal(b1-4)GlcNAc(b1-3)Gal(b1-4)GlcNAc(b1-3)Gal(b1-4)GlcNAc(b1-3)Gal(b1-4)GlcNAc(b1-2)Man(a1-3)]Man(b1-4)GlcNAc(b1-4)[Fuc(a1-6)]GlcNAc
# How it was run: as §1
# [18] = biological target: Gal(b1-4)GlcNAc(b1-3)Gal(b1-4)GlcNAc(b1-3)Gal(b1-4)GlcNAc(b1-3)Gal(b1-4)GlcNAc(b1-3)Gal(b1-4)GlcNAc(b1-3)Gal(b1-4)GlcNAc(b1-2)Man(a1-3)[Gal(b1-4)GlcNAc(b1-3)Gal(b1-4)GlcNAc(b1-3)Gal(b1-4)GlcNAc(b1-3)Gal(b1-4)GlcNAc(b1-3)Gal(b1-4)GlcNAc(b1-3)Gal(b1-4)GlcNAc(b1-2)Man(a1-6)]Man(b1-4)GlcNAc(b1-4)GlcNAc
# How it was run: as §1
# [19] = biological target: Gal(b1-4)GlcNAc(b1-3)Gal(b1-4)GlcNAc(b1-3)GalNAc
# How it was run: as §1
# [20] = biological target: Gal(b1-4)GlcNAc(b1-3)Gal(b1-4)GlcNAc(b1-3)[Gal(b1-4)GlcNAc(b1-3)Gal(b1-4)GlcNAc(b1-6)]GalNAc
# How it was run: as §1
# [21] = biological target: Gal(b1-4)GlcNAc(b1-3)Gal(b1-4)GlcNAc(b1-6)[Gal(b1-3)]GalNAc
# How it was run: as §1
# [22] = biological target: Gal(b1-4)GlcNAc(b1-3)Gal(b1-4)[Fuc(a1-3)GlcNAc(b1-6)]Gal(b1-4)Glc
# How it was run: as §1
# [23] = biological target: Gal(b1-4)GlcNAc(b1-3)Gal(b1-4)[Fuc(a1-3)]GlcNAc(b1-3)Gal(b1-4)[Fuc(a1-3)]GlcNAc
# How it was run: as §1
binder,measurement,setting,value
B1,glycan array binding signal (z-score),[1],-0.216
same,glycan array binding signal (z-score),[2],-0.213
same,glycan array binding signal (z-score),[3],-0.169
same,glycan array binding signal (z-score),[4],0.074
same,glycan array binding signal (z-score),[5],-0.091
same,glycan array binding signal (z-score),[6],0.099
same,glycan array binding signal (z-score),[7],0.45
same,glycan array binding signal (z-score),[8],-0.236
same,glycan array binding signal (z-score),[9],0.09
same,glycan array binding signal (z-score),[10],-0.1
same,glycan array binding signal (z-score),[11],0.032
same,glycan array binding signal (z-score),[12],-0.156
same,glycan array binding signal (z-score),[13],-0.138
same,glycan array binding signal (z-score),[14],-0.081
same,glycan array binding signal (z-score),[15],-0.195
same,glycan array binding signal (z-score),[16],-0.167
same,glycan array binding signal (z-score),[17],-0.097
same,glycan array binding signal (z-score),[18],-0.17
same,glycan array binding signal (z-score),[19],-0.026
same,glycan array binding signal (z-score),[20],0.788
same,glycan array binding signal (z-score),[21],-0.04
same,glycan array binding signal (z-score),[22],-0.224
same,glycan array binding signal (z-score),[23],-0.223
